# Read counts are not given, so values of variants with three or more changes are uncertain.
# B1: LINE1-mini (parent)
# chain: GGCAGAGCUCAACACAGCGUGGCAAAGUGGCUGUGGCUAGACUGCC
# Variants of: B1
# Test: self-cleavage, relative activity (ratio to wild type); higher = more cleavage; in vitro, sequencing; the parent is a self-cleaving ribozyme
row,Variant,self-cleavage
1,A25G U28G C37A,0.02
2,A25G U34A A39G A41G C42A,0.03
3,A25G U34A G35U,0.02
4,A25G U34A G36C G44A C45U,0.01
5,A25G U34A G40A,0.03
6,A25G U34A G44U,0.07
7,A25G U34G C37U,0.15
8,A25G U38A C42U,0.04
9,A25G U38G G44U,0.02
10,A25U A26C U28A C37U,0.01
11,A25U A26G C37G,0.04
12,A25U A26U G29C G33A,0.05
13,A25U A26U U34A G40U C42G,0.02
14,A25U C31A A39C U43C,0.14
15,A25U C31A A41C,0.05
16,A25U C31A G40C C45U,0
17,A25U C31U G35U,0.18
18,A25U C31U G40C C45A,0.15
19,A25U C37A G40A,0.11
20,A25U C37A U38C,0.02
21,A25U C42A U43A,0.04
22,A25U C45U C46G,0.16
23,A25U G27A G44A,0.3
24,A25U G27U G36U C42G,0

row,Variant,self-cleavage
1,A25U G27U G44C,0.36
2,A25U G27U U28A C37G,0.01
3,A25U G27U U32A A39C C45A,0.08
4,A25U G29A C37G A41U,0.02
5,A25U G29A G30A,2.36
6,A25U G29A G33C G36C,0.03
7,A25U G29C G36A,0.03
8,A25U G30A A41G,0.32
9,A25U G30A G33U G44A,0.07
10,A25U G30A G44U,0.23
11,A25U G30A U32G,0.08
12,A25U G30C U38A,0.88
13,A25U G30U A39C,1.94
14,A25U G33A G44A,0.16
15,A25U G33C G40C,0.05
16,A25U G33C U34G,0
17,A25U G33U C46U,0.05
18,A25U G35A A41C,0.01
19,A25U G35C C37U,0.03
20,A25U G36U C42A,0.02
21,A25U G36U G40U,0.19
22,A25U U28A C37G A39C,0.33
23,A25U U28A G36A C42A G44U,0.19
24,A25U U28A G36U G44C,0.04

row,Variant,self-cleavage
1,A25U U28C G40U U43G,0.02
2,A25U U28C U43G,0.01
3,A25U U28G C37U U38C,0
4,A25U U28G C45A,0.04
5,A25U U28G G33U,0.01
6,A25U U28G G35A,0.06
7,A25U U32G G33C,0.03
8,A25U U34C A39C A41U,0.05
9,A25U U34C C37A,0.01
10,A25U U34G A41G U43C,0.02
11,A25U U34G G44A,0.05
12,A25U U34G U43A,0.02
13,A26C A41G U43A,0.16
14,A26C C31A C42G,0.04
15,A26C C31G A39U C46A,0.03
16,A26C C31U G44A,0.07
17,A26C C37A A39C C46A,0.02
18,A26C C42U C46A,0.12
19,A26C G27A G30A G40C C42G,0.03
20,A26C G27A G30C,0.36
21,A26C G27C C31U A41C C42U,0.05
22,A26C G29A C37A G44A,0.06
23,A26C G29A G33A,0.06
24,A26C G29A U38G,0.03

row,Variant,self-cleavage
1,A26C G29C G30A U38A,1.34
2,A26C G29U A39C,0.04
3,A26C G29U C31U,0.04
4,A26C G29U G36A,0.1
5,A26C G29U G44U,0.1
6,A26C G29U U43A,0.02
7,A26C G30A A39G,0.09
8,A26C G30A C31U,0.82
9,A26C G30A C37A,0.07
10,A26C G30A G36C C37G,0.12
11,A26C G30A G40U,0.04
12,A26C G30U A39U A41C,0.06
13,A26C G30U G33A,0.12
14,A26C G30U U34C,0.54
15,A26C G30U U34G G36U G40U,0.03
16,A26C G33A A39G,0
17,A26C G33A G36U G44A,0.04
18,A26C G33C U34G G35U,0.03
19,A26C G33U C45U,0.41
20,A26C G33U C46U,0.06
21,A26C G33U U34A,0.05
22,A26C G33U U43C C46A,0.02
23,A26C G35A A41U,0.07
24,A26C G35C G36U,0.14

row,Variant,self-cleavage
1,A26C G36C U38C U43G C45G,0.15
2,A26C G36U C42A,0.08
3,A26C G36U C46A,0.11
4,A26C G36U G44C,0.09
5,A26C G44C C45U,0.03
6,A26C U28A G30C U38C C42U U43G,0.1
7,A26C U28C G29U A39U,0.15
8,A26C U28C U32G,0.09
9,A26C U32A C46G,0.06
10,A26C U32C G40A,0.08
11,A26C U32G A39G U43C,0.08
12,A26C U34A G44A,0.06
13,A26C U34C A41C,0.03
14,A26C U34C G36A,0.18
15,A26C U34G C37U,0.07
16,A26C U34G G35U,0.07
17,A26G A39C A41U,0.05
18,A26G C31U A41G,0
19,A26G C37A G44A,0.03
20,A26G C37U U38A A41C,0.02
21,A26G G27A G29C,0.39
22,A26G G27C C31U C37A,0.02
23,A26G G27C G30C G40C C42A,0.03
24,A26G G27C G33U,0.04

row,Variant,self-cleavage
1,A26G G27U C31G,0.1
2,A26G G27U G30A A39G,0.19
3,A26G G27U U38G,0.02
4,A26G G29A U43A,0.06
5,A26G G29C C42U,0.03
6,A26G G29U A41C,0.05
7,A26G G29U G33C C42G,0.04
8,A26G G30C G33A A39G A41C,0.02
9,A26G G30C G33A C37A,0.07
10,A26G G30C G33U,0.03
11,A26G G30U A39U,0.97
12,A26G G30U C37A A39G,0.01
13,A26G G33A U34C,0.08
14,A26G G33C A39C,0.09
15,A26G G33C G40A C46U,0.1
16,A26G G33U G44C,0.02
17,A26G G35U A39G,0.03
18,A26G G36U C42U,0.1
19,A26G G36U C45U,0.07
20,A26G G36U G44U,0.03
21,A26G G40A A41G,0.02
22,A26G G40A C46A,0.22
23,A26G G40U C46U,0.09
24,A26G G40U U43A C45G,0.21

row,Variant,self-cleavage
1,A26G U28A G35C C42G C45A,0.04
2,A26G U28A G44A,0.52
3,A26G U28C G29U G36U G40C,0.04
4,A26G U28G G30A G36A C45G,0.04
5,A26G U32A A41U,0.01
6,A26G U32A G33C G35A U38A,0.06
7,A26G U32A G33U U34A U38A,0.07
8,A26G U32C C45A,0.02
9,A26G U34A A41U,0.05
10,A26G U34A G40A,0.07
11,A26G U34A U43C,0.01
12,A26G U38C A39C,0.22
13,A26G U38C C46U,0.21
14,A26U A41C G44U,0.04
15,A26U A41U U43A,0.41
16,A26U C31A C42U C46U,0
17,A26U C31A U32A,0.07
18,A26U C31A U38A A41G G44A C45A,0.03
19,A26U C31A U38C A41C C45G,0.05
20,A26U C31G G40A,0.02
21,A26U C31G G40C,0.1
22,A26U C31G U38G,0
23,A26U C31U G33C U34A,0.01

# From the RNAGym collection of RNA variant scans (doi:10.7554/elife.90254)
